# According to PubChem BioAssay AID588382 (National Center for Advancing Translational Sciences (NCATS), 2011):
# Hit rate of the full screen: of about 1,300 compounds, about 150 (12%) were called active. Inconclusive means that the source gave no clear call. Such entries were picked first, then a sample of the others. Calls come from the whole dose curve; as a rule, active = well fitted cell-killing curve with a large enough effect; inconclusive = small, poorly fitted or top-dose-only effect, or effect the other way; inactive = flat fitted curve, though single readings scatter. Where the call is inconclusive, the potency comes from a doubtful curve fit.
# Assay: qHTS of small molecules that selectively kill Giardia lamblia: Hit Validation in HepG2 cytotox;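 note: compound exposure lasted overnight at 37 deg C; nearly all actives have a fitted effect of over 55% in size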
# Details: cell viability; Potency: HepG2 cytotoxicity; series mostly up to 38.3 µM
# Text: Giardia lamblia is a human pathogen afflicting impoverished nations, and the most common cause of outbreaks of diarrhea in the United States. Giardia has been classified by the CDC as a category B bioterrorism organism. The favored anti giardiasis drugs in the US are metronidazole or tinidazole, compounds that have undesirable side effects. Moreover, increasing resistance to drug regimes and recurrence are a concern. It is thus clear that alternative drug treatments are needed.
# In a collaboration between the University of Maryland, College Park and the NIH Chemical Genomics Center, a bioluminescence Giardia viability assay based on the trophozoites' ATP content was developed. This assay is suitable for high throughput screening, and miniaturized the assay for compound screening in 1536-well plates. The goal of the project is to screen the Molecular Libraries Small Molecule Repository (MLSMR) for compounds that selectively kill Giardia trophozoites. This counterscreen looks at the toxicity of the compounds against the human HepG2 cell line.
# NIH Chemical Genomics Center [NCGC]
# NIH Molecular Libraries Probe Centers Network [MLPCN]
# Assay Submitter (PI): Osnat Herzberg, University of Maryland, College Park, MD.
# 4 uL of HepG2 cells ae dispensed into white 1536-well plates. They are incubated overnight at 37 deg C and then 23 nL of compounds are transferred to the wells with a pintool. Plates are incubated overnight at 37 deg C. 2 uL of ATPLite is added and the plates are incubated for 15 min at room temperature before they are read on the ViewLux for luminiescence.
# Potency is the fitted concentration of half-maximal effect; tags give direction and shape of the fitted curve.
row,Structure (SMILES),Potency
1,COc1ccc(NC(C)C(=O)N/N=C/c2ccc([N+](=O)[O-])s2)cc1 (stereo unspecified),inactive
2,O=c1c([N+](=O)[O-])cccn1Cc1cccc(Br)c1,"inconclusive: 14.7 µM [rising, single point]"
3,O=C(NNC(=O)c1cc(-c2ccncc2)nc2ccccc12)c1ccccc1O,inactive
4,Cc1ccc2nsnc2c1NC(=O)c1ccc([N+](=O)[O-])o1,"inconclusive: 1.31 µM [cytotoxic, single point]"
5,CN1CCN(c2ccc(NC(=O)c3ccc4c(c3)OCCO4)cc2Cl)CC1,"inconclusive: 4.65 µM [cytotoxic, partial curve, poor fit]"
6,O=C(Nc1nnc(-c2ccco2)o1)c1ccc([N+](=O)[O-])s1,"inconclusive: 23.3 µM [cytotoxic, single point]"
7,Cc1cc(C)cc(NC(=O)c2ccc([N+](=O)[O-])o2)c1,"inconclusive: 18.5 µM [cytotoxic, single point]"
8,O=C(Nc1ccccc1Cl)c1ccc([N+](=O)[O-])o1,"inconclusive: 23.3 µM [cytotoxic, single point]"
9,Cc1c(N=Nc2ccc(O)cc2)c(=O)n(-c2ccccc2)n1C,inactive
10,CC(=O)Nc1ccc(NC(=O)c2c([N+](=O)[O-])cnn2C)cc1,inactive
11,O=C(c1ccc2c3c(cccc13)CC2)C1CCCN(Cc2ccc(OCCO)cc2)C1 (stereo unspecified),"inconclusive: 26.1 µM [cytotoxic, single point]"
12,COc1ccc(CC(=O)Nc2ncc([N+](=O)[O-])s2)cc1OC,inactive
13,CCOc1ccc2nc(NC(=O)c3c([N+](=O)[O-])cnn3CC)sc2c1,inactive
14,Cn1c(/C(C#N)=C(\O)c2ccc([N+](=O)[O-])s2)nc2ccccc21,"inconclusive: 0.585 µM [cytotoxic, partial curve]"
15,O=c1c(-c2cccc([N+](=O)[O-])c2)[n+]([O-])c2ccccc2n1O,inactive
16,Cc1ccc(-c2csc(NC(=O)c3ccc([N+](=O)[O-])o3)n2)cc1,active: 11.7 µM
17,O=[N+]([O-])c1cncn1CCN1CCOCC1,"inconclusive: 5.21 µM [rising, partial curve]"
18,O=[N+]([O-])c1cnc2ccccn12,"inconclusive: 23.3 µM [rising, single point]"
19,CC(CSc1nnnn1-c1ccccc1)Cn1c(N2CCCC2)nc2c1c(=O)[nH]c(=O)n2C (stereo unspecified),"inconclusive: 3.29 µM [rising, partial curve]"
20,Cc1cc(N)ccc1N=Nc1c(C)n(C)n(-c2ccccc2)c1=O,inactive
21,CC1C/C(=C/c2ccncc2)C(=O)/C(=C/c2ccncc2)C1 (stereo unspecified),active: 2.07 µM
22,O=C(Nc1cccc2ncccc12)c1ccc([N+](=O)[O-])o1,"inconclusive: 26.1 µM [cytotoxic, single point]"
23,CC1(C)[N+]([O-])=C2C(=[N+]([O-])C1(C)C)c1ccccc1/C2=N\O,"inconclusive: 3.69 µM [rising, full curve, poor fit]"
24,COc1ccc(/C=C/c2ccc3ccccc3n2)cc1OC,"inconclusive: 5.21 µM [cytotoxic, full curve]"

row,Structure (SMILES),Potency
1,CCCOc1cccc(-c2nnc(NC(=O)c3ccco3)s2)c1,"inconclusive: 0.521 µM [rising, partial curve, poor fit]"
2,O=c1c([N+](=O)[O-])cc(C(F)(F)F)cn1Cc1c(Cl)cccc1Cl,"inconclusive: 23.3 µM [rising, single point]"
3,O=C(Nc1cc([N+](=O)[O-])c2[nH]c(=O)c3ccccc3c2c1)C(F)(F)F,"inconclusive: 5.21 µM [rising, single point]"
4,COc1ccc(/C=N/Nc2cc(C)nc3c(C)cccc23)cc1,active: 13.1 µM
5,Nc1nc(Cl)nc2c1ncn2[C@H]1C[C@H](O)[C@@H](CO)O1,inactive
6,CC(C)(C)c1cc(C(=O)N/N=C/c2ccc([N+](=O)[O-])s2)n[nH]1,"inconclusive: 23.3 µM [cytotoxic, single point]"
7,Cc1nn(-c2nc3ccccc3[nH]2)c(=O)c2ccccc12,active: 2.07 µM
8,Cc1ccc([C@@H]2CC=C(C(=O)O)CN2S(=O)(=O)c2ccc(C)cc2)cc1,inactive
9,O=C(Nc1ccc2[nH]ncc2c1)c1ccccc1Cl,"inconclusive: 3.29 µM [cytotoxic, partial curve]"
10,CCOC(=O)[C@H]1[C@H]2COc3ccc(Cl)cc3[C@@H]2N2C(=O)c3ccc(C)cc3NC(=O)[C@@]12C,"inconclusive: 14.7 µM [cytotoxic, partial curve, poor fit]"
11,O=C(Nc1nnc(C2=COCCO2)o1)c1cccc(F)c1,inactive
12,COc1ccc2nc(NC(=O)c3ccc([N+](=O)[O-])o3)sc2c1,"inconclusive: 23.3 µM [cytotoxic, single point]"
13,Cc1ccc(OCC(=O)Nc2nc(C)c(Cl)cc2Cl)c([N+](=O)[O-])n1,inactive
14,Nc1nc2ccccc2n1/N=C/c1ccc([N+](=O)[O-])s1,"inconclusive: 16.5 µM [cytotoxic, partial curve]"
15,CSCCC(NC(=O)OC(C)(C)C)C(=O)Oc1ccc2c(=O)c(-c3ccc4c(c3)OCCO4)coc2c1 (stereo unspecified),"inconclusive: 5.21 µM [cytotoxic, full curve]"
16,O=C(CCS(=O)(=O)c1ccccc1)Nc1ncc([N+](=O)[O-])s1,"inconclusive: 26.1 µM [cytotoxic, single point]"
17,CCOC(=O)N/N=C\c1ccc([N+](=O)[O-])s1,inactive
18,O=C(CNc1ccccc1)N/N=C/c1ccc([N+](=O)[O-])o1,"inconclusive: 16.5 µM [cytotoxic, single point]"
19,Cc1oc2c(c1C(=O)O)C(=O)c1ccccc1C2=O,"inconclusive: 26.1 µM [cytotoxic, single point]"
20,COc1cc(C2CC(=O)Oc3cc(C)c(Cl)c(C)c32)cc(OC)c1OC (stereo unspecified),inactive
21,O=C(/C=C/c1ccc([N+](=O)[O-])s1)N1CCCC1,"inconclusive: 14.7 µM [cytotoxic, single point]"
22,Cc1ccc(NCC(=O)N/N=C\c2ccc([N+](=O)[O-])o2)cc1,"inconclusive: 7.36 µM [cytotoxic, partial curve, poor fit]"
23,Cc1nc2c(nc1C)C(=O)c1ccccc1C2=O,"inconclusive: 4.65 µM [cytotoxic, full curve]"
24,Cc1nnc(SCc2ccc([N+](=O)[O-])cc2)[nH]c1=O,inactive

row,Structure (SMILES),Potency
1,CC1(C(=O)N/N=C/c2ccc([N+](=O)[O-])o2)CC1(Br)Br (stereo unspecified),"inconclusive: 23.3 µM [cytotoxic, single point]"
2,CCOC(=O)C1=C(C)N=c2s/c(=C/c3cccc([N+](=O)[O-])c3O)c(=O)n2C1c1ccc(OC)cc1OC (stereo unspecified),inactive
3,O=[N+]([O-])c1ccc(/C=N/Nc2ccnc3cc(Cl)ccc23)o1,"inconclusive: 8.26 µM [cytotoxic, partial curve, poor fit]"
4,COCc1nnc(NC(=O)c2ccc(Cl)cc2[N+](=O)[O-])s1,"inconclusive: 0.208 µM [cytotoxic, single point]"
5,COC(=O)c1ccc(Cn2cc(C(F)(F)F)cc([N+](=O)[O-])c2=O)cc1,inactive
6,CN(C(=O)CSc1nc2ccccc2c(=O)n1-c1ccc(F)cc1)C1CCS(=O)(=O)C1 (stereo unspecified),inactive
7,COCCn1c(C)cc(C(=O)COc2ccc(C)nc2[N+](=O)[O-])c1C,inactive
8,O=C(N/N=C\c1ccc([N+](=O)[O-])s1)C1COc2ccccc2O1 (stereo unspecified),"inconclusive: 10.4 µM [cytotoxic, partial curve, poor fit]"
9,O=[N+]([O-])c1ccc(/C=N/Nc2ncccc2[N+](=O)[O-])s1,inactive
10,NS(=O)(=O)c1ccc(Nc2ncccc2[N+](=O)[O-])cc1,inactive
11,Clc1ccc2c(N/N=C/c3cccc(Br)c3)ccnc2c1,active: 11.7 µM
12,O=[N+]([O-])C(/C=C(\Cl)[N+](=O)[O-])=C(N1CCCCC1)N1CCCCC1,inactive
13,Cc1ncc([N+](=O)[O-])n1CCOC(=O)c1ccc(Cl)cc1Cl,"inconclusive: 8.26 µM [rising, partial curve, poor fit]"
14,O=[N+]([O-])c1ncn(Cc2c(Cl)cccc2Cl)n1,inactive
15,O=S(=O)(c1ccccc1)N1CCN(S(=O)(=O)c2ccccc2)CC1,"inconclusive: 4.14 µM [rising, partial curve, poor fit]"
16,Clc1ccc2c(N/N=C/c3ccc(Br)cc3)ccnc2c1,"inconclusive: 18.5 µM [cytotoxic, partial curve]"
17,COc1ccc(N(CC(=O)N/N=C/c2cccc(OC)c2OC)S(=O)(=O)c2ccccc2)cc1,"inconclusive: 3.29 µM [rising, partial curve, poor fit]"
18,Cc1c(Cl)cccc1NC(=O)CCCn1cnc([N+](=O)[O-])n1,"inconclusive: 4.65 µM [rising, single point]"
19,Cc1ccc(NC(=S)N/N=C/c2ccc([N+](=O)[O-])s2)cc1,"inconclusive: 18.5 µM [cytotoxic, partial curve, poor fit]"
20,c1coc(-c2nc3cc4ccccc4cc3nc2-c2ccco2)c1,"inconclusive: 5.85 µM [cytotoxic, partial curve, poor fit]"
21,COc1ccc2cc3cc(C(=O)Nc4ccccc4N4CCN(C)CC4)oc3nc2c1,"inconclusive: 23.3 µM [cytotoxic, single point]"
22,O=C(Cc1ccccc1)N/N=C/c1ccc([N+](=O)[O-])s1,"inconclusive: 16.5 µM [cytotoxic, single point]"
23,Cc1cc(O)ccc1N1C(=O)c2cccc3cc([N+](=O)[O-])cc(c23)C1=O,"inconclusive: 0.0826 µM [cytotoxic, full curve, poor fit]"
